The list shows a part of the results.

The subject of this experiment is T1, Caupolican (Caup) homeodomain DNA-binding domain.
T1 sequence: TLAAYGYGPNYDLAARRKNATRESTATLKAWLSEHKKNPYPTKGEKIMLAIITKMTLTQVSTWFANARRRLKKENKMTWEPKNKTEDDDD
Briefly: PBM E-score (8-mer, recovered from the published 9-mer minima) (E-score (dimensionless, -0.5 to 0.5)); Drosophila protein; higher = stronger relative binding preference, active = 0.31 or more. The essentials:
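Caup's homeodomain DNA-binding domain (residues 214-303) was produced by in vitro transcription and translation and applied at 100 nM to custom-designed protein binding microarrays. Each value is an enrichment score giving relative binding preference for a short DNA word; higher means stronger. Published 9-mer scores were the minimum of their two constituent 8-mer scores, and the 8-mer values were recovered from those minima. A cutoff of 0.31 marks candidate binding sequences.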
As for GGCTGTGA, the “PBM E-score” value was inactive: -0.0365. The figure for AACGAGGC is inactive: -0.0558; for AAAGTTGT it is inactive: 0.17; for AGTAGGGG it is inactive: -0.0773.

With AGTCTTCA, the “PBM E-score” value was inactive: -0.0246.

ATCCACAG: the “PBM E-score” value was inactive: 0.0805. ATTATGAG: the “PBM E-score” value was inactive: 0.0589. Consider CTGCGTTA, for which the “PBM E-score” value was inactive: -0.0927. Consider AACCAAAT, for which the “PBM E-score” value is inactive: 0.0931. The value for GATTGCCA was inactive: -0.0923; that for GGAGACCC was inactive: -0.185; that for ATAGACAT was active: 0.321. In the case of CTTCGGCC, the “PBM E-score” value was inactive: -0.184. Take GCATGACA: the “PBM E-score” value was inactive: 0.21.

For the sequence GATTTAGC, the “PBM E-score” value is inactive: -0.028. The figure for TCCAGTCA is inactive: -0.102; for AGGATGTG it is inactive: 0.0836.

In the case of ACGGGCCG, the “PBM E-score” value was inactive: -0.194.

On to CGGCTGCC, for which the “PBM E-score” value was inactive: -0.224. Regarding AGCGTAAT, the “PBM E-score” value was no less than 0.076.

Consider TAAACCAA, for which the “PBM E-score” value is inactive: 0.0726. On to ATTTACTC, for which the “PBM E-score” value is inactive: 0.089. The figure for CATGTATC is active: 0.408; for GCCCTTCA it is inactive: -0.139. With TGCTTAAA, the “PBM E-score” value is inactive: 0.0562. Regarding AGGTCGGA, the “PBM E-score” value was inactive: -0.0713. The figure for AGAACATG is active: 0.406; for GACGTCCC it is inactive: -0.115. The figure for CGGTATCA is inactive: 0.116; for CCAACGGG it is inactive: -0.138; for AATGAAGA it is inactive: 0.0411. The value for GGCCCGCA was inactive: -0.246; that for CCTTCCAG was inactive: -0.176. With AGATGCCA, the “PBM E-score” value was inactive: -0.0951.

CTTATCTA: the “PBM E-score” value was inactive: 0.0324. The value for ATGCGAAA was inactive: 0.0128. Take AGTGGGAC: the “PBM E-score” value was inactive: 0.0245. The value for ATAAGTAG was inactive: 0.12. Regarding ACACAGGT, the “PBM E-score” value was inactive: 0.208. In the case of CACAAGGG, the “PBM E-score” value was inactive: -0.00024. The figure for AGGTGGCC is inactive: -0.286; for AGCCGCGC it is inactive: -0.217; for AGAGCGTG it is inactive: -0.0713. The figure for CCATGACC is inactive: -0.0875; for GAGTCTTA it is inactive: -0.00861; for GGTCTCCA it is inactive: -0.147. In the case of CCTTGACG, the “PBM E-score” value is inactive: -0.172. Take AATTACGA: the “PBM E-score” value is inactive: 0.15. Regarding CTGCTCCA, the “PBM E-score” value was inactive: -0.0249. The figure for TCGTCGAA is no less than 0.0548; for AGCTTTTG it is inactive: -0.0319; for GTTCTAGA it is inactive: 0.0782. The value for GCCACCAA was inactive: -0.183; that for CACACCAA was inactive: 0.0617; that for ATGTCATA was active: 0.4. The figure for AATCGACA is inactive: 0.254; for ATTGCGAG it is inactive: -0.11. AGCTACCT: the “PBM E-score” value is inactive: -0.00471. As for TCTGGGAA, the “PBM E-score” value is inactive: -0.0866. Consider TATTTTCA, for which the “PBM E-score” value was inactive: 0.11. Take ACTCGTCG: the “PBM E-score” value was inactive: -0.00807. For the sequence CAATGCGG, the “PBM E-score” value was inactive: -0.101.

Source of the values: the supplement of paper PMC3724861.
